Data: PubChem BioAssay (NCATS)
Several values for one entry are separate records, joined by “and”; a condition that tells them apart may be missing. Equal entries are not always repeated. Inconclusive results, whose numbers are uncertain, are shown with a selection of clear calls. Potencies beside an inconclusive call are fits to weak or partial responses and may not hold up. Activity calls are given as the source filed them. The call rests on the fitted dose curve; in most records, active means well fitted curve in the direction sought with a large enough effect; inconclusive means small, poorly fitted or top-dose-only effect, or another doubt; inactive means no such curve, though single readings can be large; an effect the other way counts as inactive or inconclusive.

How the values were obtained:
[1] = qHTS of pediatric cancer cell lines to identify multiple opportunities for drug repurposing: Primary screen for NB-EBc1 cells (AID 1347095)
Method in brief: (§1)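 Quantitative HTS format: each compound titrated (MIPE 11 points from 0.78 nM, NPC 8 points from 0.59 nM) onto cells plated 5 hours earlier. After 48 h at 37 degrees C, CellTiter-Glo luminescence was recorded.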

[2] = qHTS of pediatric cancer cell lines to identify multiple opportunities for drug repurposing: Primary screen for Saos-2 cells (AID 1347097); settings: Saos-2 viability, CellTiter-Glo ATP luminescence, 48 h; activity change, negative = cytotoxic: at 46 µM (top of the series); further: nearly all actives have a fitted effect of over 40% in size
Method in brief: as §1

[3] = qHTS of pediatric cancer cell lines to identify multiple opportunities for drug repurposing: Primary screen for SK-N-SH cells (AID 1347098); settings: SK-N-SH viability, CellTiter-Glo luminescence, 48 h; activity change, negative = cytotoxic: at 57 µM (top of the series); further: nearly all actives have a fitted effect of over 65% in size;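 on activity change, negative = cytotoxic: DMSO served as neutral control and bortezomib at 2.3 µM as positive control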
Method in brief: (§2)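 Cells (500-1,000/well) rested 5 h, then received compounds for 48 h; metabolically active cells were measured by CellTiter-Glo luminescence. Final concentrations spanned up to 46 µM (MIPE, 11-point) or 0.59 nM-46 µM (NPC, 8-point) in primary screens, 11-point in follow-ups.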

[4] = qHTS of pediatric cancer cell lines to identify multiple opportunities for drug repurposing: Primary screen for BT-12 cells (AID 1347101); further: nearly all actives have a fitted effect of over 25% in size
Method in brief: as §2

[5] = qHTS of pediatric cancer cell lines to identify multiple opportunities for drug repurposing: Primary screen for Rh18 cells (AID 1347102); further: nearly all actives have a fitted effect of over 65% in size
Method in brief: (§3)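 Cells (500-1,000/well) in growth media were settled 5 h at 37 degrees C, then given compounds for 48 h. Viability was read as CellTiter-Glo luminescence. Primary runs used MIPE at 11 points (0.78 nM-46 µM) and NPC at 8 points (0.59 nM-46 µM); follow-ups used 11 points.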

[6] = qHTS of pediatric cancer cell lines to identify multiple opportunities for drug repurposing: Primary screen for NB1643 cells (AID 1347099); further: nearly all actives have a fitted effect of over 50% in size
Method in brief: as §1

[7] = qHTS of pediatric cancer cell lines to identify multiple opportunities for drug repurposing: Primary screen for RD cells (AID 1347104); further: nearly all actives have a fitted effect of over 55% in size
Method in brief: as §1

[8] = qHTS of pediatric cancer cell lines to identify multiple opportunities for drug repurposing: Primary screen for LAN-5 cells (AID 1347100); settings: LAN-5 neuroblastoma viability, CellTiter-Glo luminescence, 48 h; activity change, negative = cytotoxic: at 46 µM (top of the series)
Method in brief: as §3

[9] = qHTS of pediatric cancer cell lines to identify multiple opportunities for drug repurposing: Primary screen for OHS-50 cells (AID 1347103); further: nearly all actives have a fitted effect of over 40% in size
Method in brief: as §2

[10] = qHTS of pediatric cancer cell lines to identify multiple opportunities for drug repurposing: Primary screen for U-2 OS cells (AID 1347096); further: nearly all actives have a fitted effect of over 50% in size
Method in brief: as §3
Potency means the concentration at half of the fitted maximal effect; tags describe the fitted curve by direction and shape.

COc1ccc2c(Oc3ccc(NC(=O)c4c(C)n(CC(C)(C)O)n(-c5ccccc5)c4=O)nc3)ccnc2c1
Potency [1]: inconclusive: 37.2 µM [cytotoxic, single point] | Potency [2]: inconclusive: 26.4 µM [cytotoxic, partial curve] | Potency [3]: inconclusive: 24.1 µM [cytotoxic, partial curve] | Potency [4]: inconclusive: 27.3 µM [cytotoxic, partial curve, poor fit] | Potency [5]: inconclusive: 11.8 µM [cytotoxic, partial curve, poor fit]

O=C(O)c1ccc(-c2cc3cccnc3c(-c3ccc4nonc4c3)n2)cc1
Potency [1]: inconclusive: 33.2 µM [cytotoxic, single point] | Potency [2]: inconclusive: 20.9 µM [cytotoxic, partial curve] | Potency [3]: inconclusive: 30.4 µM [cytotoxic, single point] | Potency [6]: inconclusive: 0.935 µM [cytotoxic, full curve] | Potency [4]: active: 27.3 µM | Potency [7]: active: 26.4 µM

Cc1cc(C2CCCCC2)n(O)c(=O)c1
Potency [1]: inconclusive: 29.9 µM [cytotoxic, single point] and active: 7.43 µM | Potency [2]: inconclusive: 1.48 µM [cytotoxic, full curve] | Potency [3]: inconclusive: 1.52 µM [cytotoxic, full curve, poor fit] | Potency [8]: inconclusive: 29.9 µM [cytotoxic, single point] and active: 7.43 µM | Potency [4]: active: 6.92 µM and active: 17.2 µM | Potency [5]: inconclusive: 1.06 µM [cytotoxic, full curve] and inconclusive: 3.72 µM [cytotoxic, partial curve, poor fit] | Potency [7]: active: 7.5 µM and active: 18.7 µM

Nc1nc(OCc2ccccc2)c2[nH]cnc2n1
Potency [1]: active: 18.7 µM | Potency [2]: inconclusive: 5.9 µM [cytotoxic, partial curve] | Potency [3]: inconclusive: 24.1 µM [cytotoxic, partial curve] | Potency [6]: inconclusive: 33.2 µM [cytotoxic, single point] | Potency [9]: inconclusive: 21.7 µM [cytotoxic, partial curve]

O=c1cc(O)c(Cl)c[nH]1
Potency [1]: inconclusive: 9.35 µM [cytotoxic, partial curve] | Potency [2]: inactive | Potency [3]: inconclusive: 19.2 µM [cytotoxic, partial curve] | Potency [8]: inconclusive: 4.18 µM [cytotoxic, full curve] | Potency [4]: inconclusive: 17.2 µM [cytotoxic, partial curve] | Potency [5]: inconclusive: 5.9 µM [cytotoxic, full curve]

Cn1c(=O)c(F)c(Nc2ccc(I)cc2F)c2c(=O)n(C[C@@H](O)CO)cnc21
Potency [1]: inconclusive: 0.0132 µM [cytotoxic, full curve] | Potency [2]: inconclusive: 20.9 µM [cytotoxic, single point] | Potency [3]: active: 6.81 µM | Potency [6]: inconclusive: 11.8 µM [cytotoxic, partial curve] | Potency [8]: inconclusive: 1.32 µM [cytotoxic, partial curve, poor fit] | Potency [4]: inconclusive: 6.11 µM [cytotoxic, partial curve] | Potency [9]: inactive

Cc1noc(-c2ccc(CSCCC(=O)O)cc2)c1NC(=O)OC(C)c1ccccc1Cl (stereo not drawn)
Potency [1]: inactive | Potency [10]: inactive | Potency [6]: inconclusive: 37.2 µM [cytotoxic, single point] | Potency [4]: inactive

CCCNC(=O)Nc1ccc(Oc2ncnc3cc(OC)c(OC)cc23)cc1Cl
Potency [1]: inconclusive: 26.4 µM [cytotoxic, single point] | Potency [10]: inactive | Potency [8]: inconclusive: 20.9 µM [cytotoxic, partial curve, poor fit]

Clc1ccc(-c2nc3sccn3c2C=NOCc2ccc(Cl)c(Cl)c2)cc1
Potency [1]: inconclusive: 16.6 µM [cytotoxic, partial curve] | Potency [2]: inconclusive: 16.6 µM [cytotoxic, partial curve] | Potency [3]: inconclusive: 42.9 µM [cytotoxic, partial curve, poor fit] | Potency [6]: inconclusive: 1.87 µM [cytotoxic, partial curve, poor fit]

C[C@]12CC[C@H](O)CC1=CCC1C2CC[C@]2(C)C(n3cnc4ccccc43)=CCC12 (stereo partly drawn)
Potency [1]: inconclusive: 33.2 µM [cytotoxic, single point] | Potency [2]: inconclusive: 29.6 µM [cytotoxic, single point] | Potency [3]: inconclusive: 38.3 µM [cytotoxic, single point] | Potency [6]: inconclusive: 18.7 µM [cytotoxic, partial curve] | Potency [8]: inconclusive: 37.2 µM [cytotoxic, single point] | Potency [9]: inconclusive: 8.63 µM [cytotoxic, full curve]

C[C@@H](NCCCc1cccc(C(F)(F)F)c1)c1cccc2ccccc12
Potency [1]: inconclusive: 18.8 µM [cytotoxic, single point] | Potency [10]: inconclusive: 26.6 µM [cytotoxic, single point] | Potency [8]: inconclusive: 29.9 µM [cytotoxic, single point] | Potency [4]: inconclusive: 27.6 µM [cytotoxic, single point] | Potency [7]: inconclusive: 2.64 µM [cytotoxic, partial curve, poor fit] and inconclusive: 26.6 µM [cytotoxic, single point]

CN1CCC(=C2c3ccccc3CC(=O)c3sccc32)CC1
Potency [1]: inconclusive: 16.6 µM [cytotoxic, partial curve] | Potency [2]: inactive | Potency [3]: inconclusive: 12.2 µM [cytotoxic, partial curve] | Potency [8]: inconclusive: 26.4 µM [cytotoxic, single point] | Potency [5]: inconclusive: 20.9 µM [cytotoxic, partial curve, poor fit] | Potency [9]: inconclusive: 10.9 µM [cytotoxic, partial curve] and inconclusive: 15.5 µM [cytotoxic, partial curve]

CNC(=O)c1ccc2cc(C3(O)CCn4cncc43)ccc2c1 (stereo not drawn)
Potency [1]: inactive | Potency [2]: inconclusive: 29.6 µM [cytotoxic, single point] | Potency [3]: inactive

CN(C)S(=O)(=O)c1ccc2c(c1)C(=Cc1cc3c([nH]1)CCCC3)C(=O)N2
Potency [1]: inconclusive: 4.18 µM [cytotoxic, full curve] | Potency [2]: inconclusive: 14.8 µM [cytotoxic, partial curve] | Potency [3]: active: 3.83 µM | Potency [6]: inconclusive: 1.66 µM [cytotoxic, full curve] | Potency [4]: inconclusive: 24.3 µM [cytotoxic, partial curve] | Potency [9]: inconclusive: 13.7 µM [cytotoxic, partial curve]

O=C(Nc1cccc(Br)c1)c1cccc(S(=O)(=O)N2CCCCCC2)c1
Potency [1]: inconclusive: 20.9 µM [cytotoxic, single point] | Potency [2]: active: 16.6 µM | Potency [3]: inconclusive: 15.2 µM [cytotoxic, partial curve] | Potency [6]: inconclusive: 18.7 µM [cytotoxic, partial curve] | Potency [8]: inconclusive: 13.2 µM [cytotoxic, partial curve] | Potency [4]: inconclusive: 21.7 µM [cytotoxic, partial curve] | Potency [5]: inconclusive: 11.8 µM [cytotoxic, partial curve, poor fit] | Potency [7]: inconclusive: 20.9 µM [cytotoxic, single point]

C[C@@H](CN1CC(=O)NC(=O)C1)N1CC(=O)NC(=O)C1
Potency [1]: inconclusive: 18.8 µM [cytotoxic, partial curve, poor fit] | Potency [2]: inconclusive: 0.833 µM [cytotoxic, full curve] | Potency [3]: inconclusive: 3.04 µM [cytotoxic, full curve] | Potency [6]: inconclusive: 21.1 µM [cytotoxic, single point] and inconclusive: 14.8 µM [cytotoxic, partial curve] | Potency [8]: inconclusive: 33.5 µM [cytotoxic, single point] | Potency [9]: inconclusive: 0.389 µM [cytotoxic, full curve, poor fit]

Cn1cc(-c2ccc3nnc(C(F)(F)c4ccc5ncccc5c4)n3n2)cn1
Potency [1]: inconclusive: 26.4 µM [cytotoxic, single point] | Potency [2]: inconclusive: 26.4 µM [cytotoxic, partial curve] | Potency [3]: inconclusive: 38.3 µM [cytotoxic, partial curve, poor fit] | Potency [8]: inconclusive: 16.6 µM [cytotoxic, partial curve] | Potency [4]: inconclusive: 27.3 µM [cytotoxic, partial curve, poor fit] | Potency [5]: inconclusive: 18.7 µM [cytotoxic, partial curve, poor fit] | Potency [9]: inconclusive: 30.6 µM [cytotoxic, partial curve, poor fit]

CCNc1cc(NC2CCC(O)CC2)nc(Nc2ccc3c(ccn3Cc3ccccc3)c2)n1 (stereo not drawn)
Potency [1]: inconclusive: 33.2 µM [cytotoxic, single point] | Potency [2]: inconclusive: 29.6 µM [cytotoxic, partial curve] | Potency [3]: inconclusive: 27.1 µM [cytotoxic, partial curve] | Potency [6]: inconclusive: 23.5 µM [cytotoxic, partial curve, poor fit] | Potency [8]: inconclusive: 37.2 µM [cytotoxic, single point] | Potency [4]: active: 27.3 µM | Potency [5]: inconclusive: 26.4 µM [cytotoxic, single point] | Potency [9]: inconclusive: 43.2 µM [cytotoxic, single point] | Potency [7]: inconclusive: 33.2 µM [cytotoxic, single point]
